# According to PubChem BioAssay AID485281 (National Center for Advancing Translational Sciences (NCATS), 2010):
# Several values for one entry are separate records, joined by “and”; a condition that tells them apart may be missing. Equal values may be shown once. The whole screen tested about 350,000 compounds, of which about 260 (0.074%) were called active. The inconclusive results got no clear call from the source; some entries with a clear call stand among them for comparison. Calls come from the whole dose curve; as a rule, active = well fitted inhibition curve with a large enough effect; inconclusive = small, poorly fitted or top-dose-only effect; inactive = no such curve, though single readings can be large or run the other way. Potencies beside an inconclusive call are fits to weak or partial responses and may not hold up.
# Target: Ferritin light chain (Equus caballus) (UniProt P02791)
# Assay: qHTS Assay for Identification of Novel General Anesthetics; note: nearly all actives have a fitted effect of over 20% in size
# Details: apoferritin/1-aminoanthracene competitive binding, fluorescence; series mostly up to 77.5 µM
# Method in brief: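 Probe: 1-aminoanthracene (50% saturated, PBS). Protein: horse-spleen apoferritin, 10 uM. Incubation: 10 min, room temperature. Detection: 380 nm excitation, 535 nm emission. Analysis: normalized response, four-parameter Hill.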
# Potency is the fitted concentration of half-maximal effect; tags give direction and shape of the fitted curve.
# UniProt P02791, sequence (P02791 whole entry, looked up): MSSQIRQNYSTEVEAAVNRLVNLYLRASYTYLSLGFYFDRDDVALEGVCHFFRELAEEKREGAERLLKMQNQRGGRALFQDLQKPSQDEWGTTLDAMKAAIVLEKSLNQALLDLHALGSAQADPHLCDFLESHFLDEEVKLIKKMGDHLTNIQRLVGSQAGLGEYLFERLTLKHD
row,SMILES,Potency
1,COc1ccc(CNC(=O)CSc2nc(-c3ccccc3)cc(-c3cccs3)c2C#N)cc1,inactive
2,CCOC(=O)/C=C1\CN(Cc2cc(OC)c(OC)c(OC)c2)S(=O)(=O)c2ccc(C(F)(F)F)cc21,"inconclusive: 35.5 µM [inhibitor, partial curve]"
3,CCCCNc1nc(Oc2ccc(=O)n(-c3ccccc3)n2)nc(N(CC)CC)n1,"inconclusive: 35.5 µM [inhibitor, partial curve]"
4,CC(=O)c1cccc(-n2c(=O)c3c4c(sc3n(CC(=O)Nc3ccccc3F)c2=O)CN(C(C)=O)CC4)c1,"inconclusive: 3.16 µM [inhibitor, partial curve]"
5,Cc1cc(C)nc(SCC(=O)c2ccc(F)cc2F)n1,"inconclusive: 31.6 µM [inhibitor, partial curve]"
6,Cc1ccc2ncccc2c1NC(=S)NC(=O)c1ccccc1,"inconclusive: 35.5 µM [inhibitor, single point]"
7,CCOc1ccc(NC(=S)NNc2ccnc3cc(Cl)ccc23)cc1,"inconclusive: 39.8 µM [inhibitor, single point]"
8,O=C(COc1ccc([N+](=O)[O-])cc1)N1CCC(c2nc3ccccc3s2)CC1,inactive
9,CCC(C)NC(=O)CSc1nc2cc3c(cc2c(=O)n1Cc1ccco1)OCO3 (configuration not stated),inactive
10,Oc1ccc(/C=N/n2c(COc3ccccc3)n[nH]c2=S)c(O)c1,inactive
11,COc1ccc(Cc2noc(COc3ccc(Cl)cc3)n2)cc1,"inconclusive: 3.55 µM [inhibitor, full curve]"
12,NC(N)=N/N=C/c1ccc(OCc2ccc(Cl)cc2)cc1,"inconclusive: 31.6 µM [inhibitor, partial curve]"
13,CSc1ccccc1COC(=O)Nc1ccccc1C,"inconclusive: 31.6 µM [inhibitor, partial curve]"
14,N#Cc1ccc(C(=O)NCC(c2ccco2)N2CCCCC2)cc1 (configuration not stated),inactive
15,CCCc1ccc(Oc2cn[nH]c2-c2ccc(O)c(C)c2O)cc1,"inconclusive: 35.5 µM [inhibitor, single point]"
16,O=C1C(C=Nc2ccccc2O)=C(O)c2ccccc21,"inconclusive: 15.8 µM [inhibitor, partial curve]"
17,Cc1nn(C)c(C(=O)Sc2cccc(Cl)c2)c1[N+](=O)[O-],inactive
18,CCOC(=O)CCCn1ccc2cc(S(=O)(=O)N3CCCC3)ccc21,"inconclusive: 11.2 µM [inhibitor, partial curve]"
19,COCC(C)n1c(C)cc(C(=O)COC(=O)c2n[nH]c3ccccc23)c1C (configuration not stated),"inconclusive: 35.5 µM [inhibitor, partial curve]"
20,O=[N+]([O-])c1cc([N+](=O)[O-])c(Oc2c(F)ccc(F)c2F)cc1NN1CCCCC1,inactive
21,COc1ccc(-n2c(=O)[nH]c3cc(C(=O)NCCc4ccc(Cl)cc4)ccc3c2=O)cc1OC,"inconclusive: 14.1 µM [inhibitor, partial curve] and inconclusive: 22.4 µM [inhibitor, partial curve]"

row,SMILES,Potency
1,Cc1ccccc1Nc1ccc([N+](=O)[O-])cn1,"inconclusive: 31.6 µM [inhibitor, partial curve]"
2,CCOC(=O)COc1cc(Br)c(/C=N/Nc2ccccc2)cc1OC,inactive
3,O=C(Cn1c(=O)oc2cc(S(=O)(=O)N3CCc4ccccc43)ccc21)N1CCCCC1,"inconclusive: 10 µM [inhibitor, partial curve]"
4,O=C(CCC(=O)Nc1ccc(F)cc1)N/N=C/c1c[nH]c2ccccc12,"inconclusive: 15.8 µM [inhibitor, partial curve]"
5,CC(=O)Nc1ccc(S(=O)(=O)N2CCSCC2)cc1,"inconclusive: 31.6 µM [inhibitor, partial curve]"
6,O=C(Nc1cccnc1)C1(F)C(F)(F)C(F)(F)C(F)(F)C(F)(F)C1(F)F,active: 12.6 µM
7,O=[N+]([O-])c1ccccc1S(=O)(=O)NC1CCCCCCC1,"inconclusive: 17.8 µM [inhibitor, partial curve]"
8,COc1cccc(OCCNC(=O)CSc2ccc(C(F)(F)F)cc2[N+](=O)[O-])c1,"inconclusive: 50.1 µM [inhibitor, single point]"
9,CSCCC(=O)N1CC[C@@H](N2CCN(c3ccccc3F)CC2)[C@H](O)C1,inactive
10,Cc1ccc(-c2nnc(SCC(=O)N3CC(C)CC(C)C3)o2)cc1C (configuration not stated),"inconclusive: 3.55 µM [inhibitor, single point]"
11,Cc1ccc(N2C(=O)c3ccc(C(=O)Nc4cccnc4)cc3C2=O)c(C)c1,"inconclusive: 44.7 µM [inhibitor, partial curve, poor fit]"
12,CC1(C)CC(=O)C2=C(C1)NC1=C(C(=O)c3ccccc31)C2c1cc([N+](=O)[O-])ccc1O (configuration not stated),"inconclusive: 20 µM [inhibitor, partial curve]"
13,O=C(CCCC(=O)OCC(Cl)=C(Cl)Cl)Nc1ccccc1,"inconclusive: 22.4 µM [inhibitor, partial curve]"
14,CN(CCCCCC(=O)/C=N/O)Cc1ccccc1,inactive
15,Cc1ccnc(NC(=O)CCCOc2cc(=O)n(C)c3ccccc23)c1,inactive
16,CCN1N=C(c2cc(Cl)sc2Cl)CSC1=O,"inconclusive: 39.8 µM [inhibitor, partial curve]"
17,CCOc1ccccc1NC(=O)Cn1c(=O)n(Cc2ccc(C(=O)NCCCOC)cc2)c(=O)c2ccccc21,"inconclusive: 10 µM [inhibitor, partial curve]"
18,Cc1cccc(OCCCC(=O)Nc2ccc3c(c2)OCO3)c1,"inconclusive: 44.7 µM [inhibitor, partial curve]"
19,COc1ccc(N2CCN(C(=O)c3ccc(NS(=O)(=O)c4ccc(F)c(F)c4)cc3)CC2)cc1,"inconclusive: 35.5 µM [inhibitor, partial curve]"
20,COc1ccc(NC(=O)N2CCc3c(sc4c3CCCC4)C2c2ccc(F)cc2)cc1 (configuration not stated),inactive
21,Cn1cc(C(=O)NCc2ccc(F)cc2)c(=O)c2cc(S(=O)(=O)N3CCCCC3)ccc21,"inconclusive: 7.08 µM [inhibitor, partial curve]"
